Molecules are shown by their SMILES. Hit rate of the full screen: of about 310,000 compounds, about 14,000 (4.5%) showed an effect of 50% or more. The effect is printed as a negative number. The list shows a part of the results.
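Note: peak tail current of the secondary pulse compared with the same well before compound.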

For this assay, the target named is human ether-à-go-go-related gene (hERG) potassium channel (human, UniProt Q12809). Briefly: primary screen, population patch clamp on CHO cells stably expressing hERG.
Sequence of human ether-à-go-go-related gene (hERG) potassium channel (Q12809 whole entry, looked up): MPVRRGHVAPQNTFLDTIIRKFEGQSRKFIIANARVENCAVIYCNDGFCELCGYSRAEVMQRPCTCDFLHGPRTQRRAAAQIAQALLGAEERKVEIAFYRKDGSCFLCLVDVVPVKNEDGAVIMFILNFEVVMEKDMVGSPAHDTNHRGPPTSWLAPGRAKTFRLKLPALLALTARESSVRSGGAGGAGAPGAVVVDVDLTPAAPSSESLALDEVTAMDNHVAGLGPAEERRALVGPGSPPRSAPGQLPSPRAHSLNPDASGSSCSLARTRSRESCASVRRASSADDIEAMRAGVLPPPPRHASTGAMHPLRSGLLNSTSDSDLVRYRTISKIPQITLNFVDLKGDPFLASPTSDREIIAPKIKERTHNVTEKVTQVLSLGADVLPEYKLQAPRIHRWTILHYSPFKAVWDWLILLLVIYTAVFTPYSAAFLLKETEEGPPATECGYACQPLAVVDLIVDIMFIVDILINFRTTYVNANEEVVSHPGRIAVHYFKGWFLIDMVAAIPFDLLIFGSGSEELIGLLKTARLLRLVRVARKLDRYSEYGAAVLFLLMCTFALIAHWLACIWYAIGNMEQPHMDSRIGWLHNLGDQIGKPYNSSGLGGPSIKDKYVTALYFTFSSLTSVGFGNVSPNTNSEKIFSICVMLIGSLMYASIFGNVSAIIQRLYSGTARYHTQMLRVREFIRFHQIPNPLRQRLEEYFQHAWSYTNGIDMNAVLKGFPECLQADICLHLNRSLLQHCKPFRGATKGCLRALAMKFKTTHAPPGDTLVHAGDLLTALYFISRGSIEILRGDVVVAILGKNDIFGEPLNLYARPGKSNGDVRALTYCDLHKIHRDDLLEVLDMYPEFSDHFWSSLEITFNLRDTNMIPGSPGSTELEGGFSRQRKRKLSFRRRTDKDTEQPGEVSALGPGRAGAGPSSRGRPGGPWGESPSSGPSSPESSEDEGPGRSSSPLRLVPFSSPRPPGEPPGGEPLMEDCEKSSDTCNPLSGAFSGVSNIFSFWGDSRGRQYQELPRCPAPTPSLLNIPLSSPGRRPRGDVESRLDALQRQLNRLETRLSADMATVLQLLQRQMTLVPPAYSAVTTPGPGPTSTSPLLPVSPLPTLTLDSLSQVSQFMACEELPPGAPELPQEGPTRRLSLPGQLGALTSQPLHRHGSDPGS
In the case of `O=C(Nc1ccc(F)cc1)NC1(C(=O)NCc2ccco2)CCCCC1`, the “hERG current change (%, negative = inhibition) at 10uM” value amounted to 18.4%.
Consider `Cc1ccc2nc3c(c(N)c2c1)CCN3C.O=C(O)C(=O)O`, for which the “hERG current change (%, negative = inhibition) at 10uM” value was -33.1%.
`Cc1ccc(S(=O)(=O)N2CCN(C(=O)N3CCOCC3)C2c2ccc(N(C)C)cc2)cc1` (stereo not shown): the “hERG current change (%, negative = inhibition) at 10uM” value was -23.6%.
The value for `CCCCn1c(N)c(N(CCOC)C(=O)c2cc(C)oc2C)c(=O)[nH]c1=O` was -8.67%; that for `CCC(C)(C)NC(=O)C(c1ccc(C)cc1)N(Cc1ccco1)C(=O)CCC(=O)Nc1nccs1` (stereo not shown) was 9.32%.
The result for `Cc1oc(S(=O)(=O)N(C)C)cc1C(=O)Nc1ccc(F)cc1` reads 9.85%; that for `CC(C)(C)c1ccc(C(=O)/C=C2\NC(=O)CS2)cc1`, -9.16%; that for `CC1CCN(C(=O)CN(c2ccc3c(c2)OCCO3)S(=O)(=O)c2ccccc2)CC1`, -26.6%.
The result for `CC(Sc1nc2nn(-c3ccccc3)c(=O)c-2c2n1CCCCC2)C(N)=O` (stereo not shown) reads -15%; that for `COc1cc(CN2CCC(n3nccc3NC(=O)C3CC3)CC2)cc(OC)c1`, -66.3%.
For the molecule `COC(=O)C1=C(c2ccc(Cl)c(C(F)(F)F)c2)C[C@@H]2CC[C@H]1N2C`, the “hERG current change (%, negative = inhibition) at 10uM” value is -21.9%.
On to `O=C(Nc1nnc(Cc2ccc(F)cc2)s1)Nc1ccccc1F`, for which the “hERG current change (%, negative = inhibition) at 10uM” value is on record as 22.4%.
Regarding `COc1cc(/C=C2\CC/C(=C\c3ccc(OCCO)c(OC)c3)C2=O)ccc1OCCO`, the “hERG current change (%, negative = inhibition) at 10uM” value is 2.76%.
Regarding `CCOc1ccc(-c2n[nH]c(=S)c3ccccc23)cc1`, the “hERG current change (%, negative = inhibition) at 10uM” value amounted to 11.8%.
The value for `COc1ccc(S(=O)(=O)NC2CC3CCC2C3)cc1Br` (stereo not shown) was -12.6%; that for `C/C(=N\Nc1nc(N)cc(Cl)n1)c1cccc(N)c1` was -32.5%; that for `CC1CCCCC1NC(=O)C1CCN(c2c3c(nc4ncnn24)CCC3)CC1` (stereo not shown) was 4.49%.
As for `CC1CCN(C(=O)c2[nH]cnc2C(=O)N[C@@H](C)C(=O)OC(C)(C)C)CC1`, the “hERG current change (%, negative = inhibition) at 10uM” value is given as -2.18%.
For the molecule `COc1ccc(CNC(=O)c2ccc(NS(=O)(=O)c3c(C)noc3C)cc2)cc1`, the “hERG current change (%, negative = inhibition) at 10uM” value is -5.69%.
The value for `O=c1c2ccccc2nc(SCc2ccc(F)cc2Cl)n1CCCN1CCOCC1` was -0.00712%; that for `O=C(Cc1ccccc1)Nc1nnc(-c2ccccc2)o1` was 4.55%.
Consider `CCc1cccc(OCC2Cn3c(nc4c3c(=O)[nH]c(=O)n4C)O2)c1` (stereo not shown), for which the “hERG current change (%, negative = inhibition) at 10uM” value is reported as 12.2%.
As for `O=c1c2ccccc2nnn1COc1ccc(F)cc1Cl`, the “hERG current change (%, negative = inhibition) at 10uM” value was -0.122%.
The value for `O=C1NC(=O)C(=Cc2ccsc2)C(=O)N1` was 7.9%; that for `Cc1cccc(Cn2c(CN3CCN(Cc4ccccc4)CC3)nc3c2c(=O)[nH]c(=O)n3C)c1` was -64.9%.
The value for `CCC(=O)Nc1cc2nn(-c3ccc(C)cc3)nc2cc1C` was 19.4%; that for `S=c1[nH]nc(Nc2ccc(Cl)cc2)s1` was 27.1%; that for `Cc1ccc(O)c(-c2cc(C(F)(F)F)[nH]n2)c1` was -0.292%.
The value for `Cc1ccccc1Nc1nnc(SCc2cc([N+](=O)[O-])cc3c2OCOC3)s1` was -17%; that for `CCOC(=O)CSc1nc2c(sc(=S)n2-c2ccccc2OC)c(=O)n1Cc1ccco1` was -7.11%; that for `CC(C)=CCc1c(-c2ccc(O)cc2O)oc2cc3c(c(O)c2c1=O)C=CC(C)(C)O3` was 23.7%.
On to `CCC(=O)c1ccc(OCc2ccc(C(=O)c3ccccc3)cc2)cc1`, for which the “hERG current change (%, negative = inhibition) at 10uM” value is given as 11.6%.
As to `COc1ccccc1CC(=O)Nc1ccc(F)cc1F`, the “hERG current change (%, negative = inhibition) at 10uM” value is listed as 1.18%.
The value for `CC(C)=CC(=O)NCc1c(Cl)cccc1-n1cccc1` was 29.5%; that for `CCCCN1C(=O)c2ccc(C(=O)Nc3cccc(C)c3C)cc2C1=O` was 17.2%; that for `Cc1cccn2c(=O)c3cc(S(=O)(=O)c4ccc(Br)cc4)c(=N)n(C4CCCC4)c3nc12` was 9.92%.
The result for `CC1(C)Cc2cccc(C(=O)NCc3ccco3)c2O1` reads 15.3%; that for `CC(=O)Nc1ccc(N(C(=O)c2ccccn2)C(C(=O)NC2CCCCC2)c2ccc(F)cc2)cc1` (stereo not shown), -5.7%.
The result for `Cc1cccc(N2CC(C(=O)Nc3ccc(S(=O)(=O)Nc4nccs4)cc3)CC2=O)c1C` (stereo not shown) reads 10.1%; that for `CSc1ccc(NC(=O)N2CCN(c3nc4ccccc4s3)CC2)cc1`, 1.47%; that for `CCOC(=O)/C=C/C(=O)OCC(=O)Nc1c(Cl)cccc1Cl`, -9.87%.
Regarding `CC(=O)NCC(=O)NC(C(=O)Nc1ccc2c(c1)OCCO2)c1ccccc1` (stereo not shown), the “hERG current change (%, negative = inhibition) at 10uM” value was 6.08%.
As for `COCC(=O)Nc1ccc([N+](=O)[O-])cc1OC`, the “hERG current change (%, negative = inhibition) at 10uM” value is given as 1.42%.
For the molecule `Cl.c1cncc(CNCCc2c[nH]c3ccccc23)c1`, the “hERG current change (%, negative = inhibition) at 10uM” value turned out to be 4.01%.
The result for `Clc1ccc(-c2nnc(SCc3nc4ccccc4[nH]3)o2)c(Cl)c1` reads -4.46%; that for `Cc1ccc2c(c1)c(-c1csc(N)n1)c(C)n2C`, -0.788%.
Regarding `CCOC(=O)c1c(/N=C/c2ccc(OC)cc2O)sc2c1CCN(C)C2`, the “hERG current change (%, negative = inhibition) at 10uM” value is on record as -10.6%.
`O=c1c(/C=N/N2CCOCC2)c(O)n(-c2ccccc2)c(=S)n1-c1ccccc1`: the “hERG current change (%, negative = inhibition) at 10uM” value is given as -0.752%.
`COc1ccc(-c2nnn(CC(=O)N(c3cccc(O)c3)C(C)C(=O)NC3CCCC3)n2)cc1OC` (stereo not shown): the “hERG current change (%, negative = inhibition) at 10uM” value is recorded as -7.47%.
The result for `CCOC(=O)C1(CCCc2ccccc2)CCN(CCCn2cccn2)CC1` reads -79.1%.
The value for `C=CCOc1ccc(/C=N/NC(=O)CN(c2cc(Cl)ccc2OC)S(=O)(=O)c2ccc(C)c([N+](=O)[O-])c2)cc1` was 2.45%.
For the molecule `O=C(O)c1cc(-c2ccccc2)c(N2CCOCC2)s1`, the “hERG current change (%, negative = inhibition) at 10uM” value came to 12.7%.
With `CCOC(=O)Nc1ccc(OC)cc1S(=O)(=O)N1CCCCC1`, the “hERG current change (%, negative = inhibition) at 10uM” value is -22.8%.
Regarding `CCCn1c(=S)[nH]c2cc(Cl)ccc21`, the “hERG current change (%, negative = inhibition) at 10uM” value was determined as 9.68%.
The value for `COc1nc(NCc2ccco2)nc(NC2CCCCC2)n1` was -33.2%.
The value for `CC(=O)Nc1ccc(S(=O)(=O)NC2=C(N3CCN(C)CC3)C(=O)c3ccccc3C2=O)cc1` was -0.763%; that for `O=C(c1cccc(F)c1)N1C2C=CC(C2)C1(C(F)(F)F)C(F)(F)F` (stereo not shown) was -0.667%.
The value for `Cc1ccc([N+](=O)[O-])cc1S(=O)(=O)N1CCN(C)CC1` was 0.51%; that for `O=C(NC1CCCCC1)C1CC=CCC1C(=O)OCC(Cl)=C(Cl)Cl` (stereo not shown) was -20.7%; that for `Cc1nc2ccccc2cc1OCc1ccccc1` was 23%.
As for `CC(C)Oc1ccc(C(=O)NCc2ccco2)cc1`, the “hERG current change (%, negative = inhibition) at 10uM” value was determined as 2.54%.
The result for `Cc1cc(S(=O)(=O)N2CCCC(N3CCOCC3)C2)c(C)cc1Cl` (stereo not shown) reads -26.3%; that for `c1ccc2c(c1)Cn1nc(Cc3nc4c(s3)CCCC4)nc1-2`, -34%; that for `COc1cc2nc(=S)n3[nH]c(CCn4c(C)nc5ccccc54)nc3c2cc1OC`, 23.4%.
For the molecule `COc1ccc(CN(C)Cc2nc3scc(-c4ccccc4)c3c(=O)[nH]2)cc1OC`, the “hERG current change (%, negative = inhibition) at 10uM” value turned out to be 3.98%.
Consider `Cc1ccccc1NN1C(=O)C=CC1=O`, for which the “hERG current change (%, negative = inhibition) at 10uM” value is reported as -8.26%.
The result for `C=CCNC(=S)/N=c1\sccn1C` reads -15.8%.
Take `Cc1ccc2nc(SCC(=O)Nc3cccc(Cl)c3)nc(=O)n2c1`: the “hERG current change (%, negative = inhibition) at 10uM” value is on record as -2.54%.
The result for `O=C1CN(C(=O)c2cnccn2)c2ccccc2N1` reads 14.7%; that for `COc1ccc2c(-c3ccccc3)cc3nnnn3c2c1`, 3.09%.
The value for `CCCCSCCCNC(=O)Nc1ccc(C)c(C)c1` was 6.21%; that for `CCN1CCN(C(=O)Cn2c(=O)sc3ccccc32)CC1` was 3.26%.
As for `O=[N+]([O-])c1cc(-c2nnc(N3CCOCC3)c3ccccc23)ccc1N1CCOCC1`, the “hERG current change (%, negative = inhibition) at 10uM” value was -40.3%.
Regarding `COc1ccc(-c2noc(CSc3nc(-c4ccccc4)cc(=O)[nH]3)n2)cc1OC`, the “hERG current change (%, negative = inhibition) at 10uM” value was 6.89%.
As to `Cc1ccc2[nH]c3c(NCCCN4CCCC4=O)ncnc3c2c1`, the “hERG current change (%, negative = inhibition) at 10uM” value is -13.7%.
The value for `O=C(NCc1ccccc1)Nc1cccn(Cc2ccc(Cl)cc2)c1=O` was 22.4%; that for `Cl.N=C(N)SCc1cccc2ccccc12` was -13.3%; that for `Cc1cccc(-c2nc(CSCC(=O)NCc3cccs3)c(C)o2)c1` was -12.2%.
The value for `O=C(c1cc2cc3ccc(Cl)cc3nc2o1)N1CCC2(CC1)OCCO2` was -17.5%.
As for `O=C(CN1C(=O)NC2(CCCC2)C1=O)N1CCN(S(=O)(=O)c2ccccc2F)CC1`, the “hERG current change (%, negative = inhibition) at 10uM” value is listed as 22.3%.
The value for `NC(=O)c1ccc(-n2nc(C(F)(F)F)c3c2CCCC3)cc1` was -22.6%; that for `CC(=O)N1CCOc2ccc(S(=O)(=O)N3CCC(C(=O)Nc4ccc(C)cc4C)CC3)cc21` was 6.73%; that for `O=C(COC(=O)C1=COCCO1)Nc1ncc(C(F)(F)F)cc1Cl` was 4.52%.
The value for `O=C(/C=C/c1ccc(F)cc1)NC(=S)NNC(=O)c1cnccn1` was 19.8%; that for `COc1cc2c(cc1OC)-c1cc(Nc3ccc4c(c3)OCCO4)nc(=O)n1CC2` was -15.6%.
Consider `CCCCN=C(NNc1ccc(Br)cc1)C(=O)OCC`, for which the “hERG current change (%, negative = inhibition) at 10uM” value came to 3.69%.
The value for `CC[C@@H](C(=O)[C@@H](C)[C@@H](O)[C@H](C)CCc1ccc(C)c(O)c1C(=O)[O-])[C@H]1O[C@](CC)([C@H]2CC[C@](O)(CC)[C@H](C)O2)C[C@@H]1C.[Na+]` was 0.419%; that for `C[n+]1cccc(C(=O)NNC(=O)C23CC4CC(CC(C4)C2)C3)c1.[I-]` was 37.4%.

Values taken from publication PMC4336329 (PLoS ONE, 2015).
